Assay results from PubChem BioAssay AID686978 (National Center for Advancing Translational Sciences (NCATS), 2013).
Among all 420,000 compounds or so, about 64,000 (15%) were called active. Inconclusive results, whose numbers are uncertain, are shown with a selection of clear calls. The call rests on the fitted dose curve; in most records, active means well fitted inhibition curve with a large enough effect; inconclusive means small, poorly fitted or top-dose-only effect; inactive means flat fitted curve, though single readings scatter. No potency is given beside an inconclusive call; the fits are too rough.

assay: qHTS for Inhibitors of human tyrosyl-DNA phosphodiesterase 1 (TDP1): qHTS in cells in absence of CPT; conditions: DT40 Tdp1-/- hTDP1 cells, no CPT, ATP luminescence, 48 h; activity change, negative = growth inhibition: at 46.2 µM (top of the series) unless noted; further: nearly all actives have a fitted effect of over 55% in size
Procedure, shortened: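 Luminescent ATP content (CellTiter-Glo) served as the growth readout. Knockout chicken DT40 cells expressing human TDP1 were exposed to compounds without camptothecin for a minimum 48 hr at 37 °C.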
On the % scale 0 is the no-effect control and ±100 the full control effect; potency means the concentration at half of the fitted maximal effect; tags describe the fitted curve by direction and shape.

Compound | Potency | activity change, negative = growth inhibition
CCOc1cc(C(=O)N2CCN(c3ccc(C(C)=O)cc3)CC2)cc(OCC)c1OCC | inconclusive [inhibitor, single point] | –
Cc1ccc(C)c(N2CCN(C(=O)CCn3c(=O)c4cccn4c4cccnc43)CC2)c1 | active: 20.6 µM | –
CCN(CC)C(=O)CC(c1ccc(N(C)C)cc1)c1c(O)cc(OC)cc1OC (stereo not given) | – | inactive: -9.66%
CSc1ncccc1C(=O)OCC(=O)NCc1ccc2c(c1)OCO2 | – | inactive: 6.71%
COc1ccccc1CNC(=O)Cn1c(=O)oc2cc(S(=O)(=O)NCc3ccccc3)ccc21 | active: 18.4 µM | –
CCOC(=O)Cn1nc(NC(=O)c2ccc(C(=O)OC)cc2)cc1C | inconclusive [inhibitor, single point] | –
c1ccc2c(c1)NCCS2 | inconclusive [inhibitor, partial curve, poor fit] | –
CCN(Cc1ccccc1)C(=O)CN1C(=O)COc2ccc(S(=O)(=O)N(CC)CC)cc21 | inconclusive [inhibitor, single point] | –
COc1ccccc1N(C)S(=O)(=O)c1ccc(C(=O)NC(C)(C)C)cc1 | – | inactive: -5.7%
COC(=O)c1ccccc1NC(=O)CSc1nc(-c2ccco2)cc(C(F)(F)F)n1 | active: 4.61 µM | –
O=C(N/N=C/C=C/c1ccc2c(c1)OCO2)C(O)c1ccccc1 (stereo not given) | – | inactive: -5.54%
Cc1ccc2cc(CN(CCN(C)C)C(=O)Nc3ccc(Cl)cc3)c(=O)[nH]c2c1 | active: 16.4 µM | –
CC(=O)C1=C(C)NC(C)=C(C(C)=O)C1c1ccc(-c2ccccc2Cl)o1 | inconclusive [inhibitor, single point] | –
COc1ccc(C)cc1-n1[nH]nnc1=S | – | inactive: 8.49%
O=C1CC(/C=C/c2ccco2)=Nc2ccccc2N1 | inconclusive [inhibitor, single point] | –
O=C(Nc1cccc(-c2nnc(-c3ccccc3)o2)c1)c1ccc(Br)o1 | inconclusive [inhibitor, single point] | –
O=C(CC1C[C@H](C(=O)N2CCOCC2)[C@@]2(CCC3CCCC3)c3[nH]c4ccccc4c3CCN2C1=O)NCCCn1ccnc1 (stereo not given in full) | inconclusive [inhibitor, single point] | –
O=C(NCC1CCN(Cc2cccc(Cl)c2)CC1)c1cc2ccc3cccnc3c2[nH]1 | inconclusive [inhibitor, single point] | –
Cc1ccc(Oc2ccc(OCC(=O)NC(CC(C)C)C(=O)O)cc2)cc1 (stereo not given) | – | inactive: -2.14%
O=C(NCCN1C(=O)S/C(=C/c2cccnc2)C1=O)c1ccc(S(=O)(=O)N2CCCC2)cc1 | inconclusive [inhibitor, single point] | –
Cc1ccccc1-c1cnc(C(O)c2cccc(C)c2C)[nH]1 (stereo not given) | inconclusive [inhibitor, single point] | –
Cc1cccc(NC(=O)c2cccc(OC(=S)N3CCOCC3)c2)c1 | active: 14.6 µM | –
COc1ccccc1CNC(=O)C1CCC(CNS(=O)(=O)c2ccc(C)cc2)CC1 (stereo not given) | inconclusive [inhibitor, partial curve] | –
Cc1cc(C)cc(NC(=O)COC(=O)CC2CCCC2)c1 | – | inactive: -3.63%
C=CCC1NS(=O)(=O)OC2CCCC12 (stereo not given) | – | inactive: -8.11%

Compound | Potency | activity change, negative = growth inhibition
Cc1ccc(C2CC(c3ccccc3)=NN2C(=S)Nc2ccccc2)o1 (stereo not given) | active: 5.8 µM | –
CCOC(=O)CSc1nc2c(sc(=S)n2-c2ccccc2OC)c(=O)n1-c1ccccc1OC | inconclusive [inhibitor, partial curve, poor fit] | –
O=C(CSc1n[nH]c(-c2ccncc2)n1)Nc1ccc(F)cc1 | – | inactive: -19.7%
CC(=O)c1cc2c(cc1NC(=O)CCn1cnnn1)OCO2 | – | inactive: -15.9%
Cc1ccc(S(=O)(=O)CCC(=O)OCC(=O)c2c[nH]c3ccccc23)cc1 | – | inconclusive: -37.1% [inhibitor]
COc1ccc(OC)c(CCNC(=O)C2=C(C)C(=O)OC23CCC(C)CC3)c1 (stereo not given) | inconclusive [inhibitor, partial curve] | –
CS(=O)(=O)c1ccc2nc(NC(=O)CCS(=O)(=O)c3ccccc3)sc2c1 | active: 5.17 µM | –
Cc1cc(C)c(OCCn2ccnc2)c(C)c1 | active: 5.17 µM | –
COc1ccc(/C=N/n2c(SC)nnc(C(C)(C)C)c2=O)cc1OC | – | inactive: -0.503%
Cc1nn(C)cc1/C=N/NC(=S)Nc1ccc(Cl)cc1Cl | inconclusive [inhibitor, full curve, poor fit] | –
CCOC(=O)CN(C(=O)c1snc(C(N)=O)c1N)C(C(=O)NCCC(C)C)c1ccc(F)cc1 (stereo not given) | – | inactive: -1.55%
CC1CNC(=S)N(c2ccccc2)C1=O (stereo not given) | – | inactive: -7.76%
CCOc1ccc(N2C(=O)CC(Cc3cc(C)cc(C)c3)C2=O)cc1 (stereo not given) | inconclusive [inhibitor, single point] | –
COc1cc(NC(=S)NC(=O)C(C)C)ccc1NC(=O)c1cc2ccccc2o1 | inconclusive [inhibitor, full curve] | –
C(=N\N1CCOCC1)/c1ccsc1 | – | inactive: 7.98%
Cn1sc(NC(=O)c2ccccc2)nc1=O | – | inactive: -26.2%
CN(C(=O)CSc1nnc(-c2n[nH]c3ccccc23)o1)c1ccccc1 | inconclusive [inhibitor, partial curve, poor fit] | –
O=C(/C=C/c1ccccc1[N+](=O)[O-])N1CCc2ccccc2C1 | active: 16.4 µM | –
C/C=C(/C)C(=O)O[C@@H]1c2c(ccc3ccc(=O)oc23)OC(C)(C)[C@@H]1OC(=O)/C(C)=C\C | active: 9.2 µM | –
CCn1c(O)c(N=NC(=O)CNC(=O)c2ccco2)c2ccccc21 | inconclusive [inhibitor, single point] | –
CCCOc1ccc(Br)cc1/C=N/NC(=O)c1cc(OC)c(OC)c(OC)c1 | – | inactive: -12.3%
CC1(C)C=C(c2ccc(C=O)s2)CC(C)(C)N1C=O | – | inactive: -25%
COc1ccc2[nH]c(=O)c(CN(C(=O)c3ccco3)C3CCCCC3)cc2c1 | inconclusive [inhibitor, single point] | –
CCC(C)NC(=O)C1c2ccccc2Oc2ccccc21 (stereo not given) | – | inconclusive: -31.2% [inhibitor]
O=C(Nc1ccccc1Br)c1cnn2c1NC(=C1CC1)C=C2C(F)F | inconclusive [inhibitor, partial curve] | –

Compound | Potency | activity change, negative = growth inhibition
C/C(=N\O)c1c(O)cc(-c2ccccc2)n(-c2ccccc2)c1=O | – | inactive: -7.95%
CCOc1ccccc1NC(=O)Cn1c(=O)n(Cc2ccco2)c(=O)c2ccc(C(=O)NC3CCCC3)cc21 | active: 23.1 µM | –
O=C(CSc1c[nH]c2ccccc12)N1CCCc2ccccc21 | inconclusive [inhibitor, single point] | –
CC(OC(=O)c1ccccc1N1C(=O)C2C3CCC(C3)C2C1=O)C(=O)c1ccccc1 (stereo not given) | inconclusive [inhibitor, partial curve] | –
COc1ccc(-n2c(Cc3cccn3C)nnc2SCC(=O)Nc2cccc(Cl)c2)cc1 | inconclusive [inhibitor, single point] | –
CC(C)[C@H](NC(=O)c1ccco1)C(=O)NC12CC3CC(CC(C3)C1)C2 | – | inactive: -25.7%
COc1ccc(-c2nc(C#N)c(N3CCC(C)CC3)o2)cc1 | active: 13 µM | –
O=C(N/N=C/c1ccc[nH]1)c1cc(-c2ccc(Cl)cc2)nc2ccccc12 | active: 9.2 µM | –
O=CNc1cc(-c2ccc(C(=O)NC3CC3)cc2)cn2c(-c3ccccc3)cnc12 | active: 7.31 µM | –
CCc1ccccc1NC(=O)C1CCN(C(=O)N2CC(C)Oc3ccc(Cl)cc32)CC1 (stereo not given) | inconclusive [inhibitor, single point] | –
CCn1c(SCC(=O)N/N=C/c2ccc(OC)c(OC)c2)nc2ccccc21 | inconclusive [inhibitor, single point] | –
COc1ccc(CNc2oc(Cc3cccc4ccccc34)nc2C#N)cc1 | inconclusive [inhibitor, single point] | –
Cc1cc(F)ccc1NC1(c2ccccc2)C(=O)c2ccccc2C1=O | – | inactive: -0.108%
Cc1ccccc1NS(=O)(=O)c1ccc(C(=O)N2CC(C)OC(C)C2)cc1 (stereo not given) | – | inconclusive: -31.7% [inhibitor]
COc1ccc(Cl)cc1NC(=O)Cn1nc(Cc2ccncc2)c2ccccc2c1=O | active: 23.1 µM | –
CCO[C@H]1OC(C(=O)NCc2ccccc2)=C[C@@H](c2ccc3c(c2)OCO3)[C@@H]1CCCO | inconclusive [inhibitor, single point] | –
O=C1c2ccccc2NC(c2cccc(O)c2)N1Cc1ccco1 (stereo not given) | inconclusive [inhibitor, single point] | –
CC1ON=C(c2ccccn2)N(Cc2ccc(S(C)(=O)=O)cc2)C1=O (stereo not given) | – | inactive: 2.51%
C=CCn1c(SC(C)C(N)=O)nc2sc(CC)cc2c1=O (stereo not given) | inconclusive [inhibitor, single point] | –
CC(C)COC(=O)c1ccc(N)cc1 | – | inactive: -1.87%
COc1ccc(S(=O)(=O)Nc2cccc3c2O[C@H](CN(C)Cc2ccccc2)[C@@H](C)CN([C@H](C)CO)C3=O)cc1 | inconclusive [inhibitor, partial curve] | –
CNCCCCOc1ccc(C(C)(C)C)cc1Cl | inconclusive [inhibitor, single point] | –
O=C(Nc1nc(-c2ccc(F)cc2)cs1)c1cccc(N2C(=O)CCC2=O)c1 | inconclusive [inhibitor, single point] | –
CCCn1c(N)c(Sc2ccccc2)c(=O)n(CCC)c1=O | active: 14.6 µM | –
CC(=O)Nc1ccc(NC(=S)NC(=O)/C=C/c2ccc(Cl)cc2)cc1 | inconclusive [inhibitor, full curve, poor fit] | –
